Reference: PubChem BioAssay AID2676 (National Center for Advancing Translational Sciences (NCATS), 2010)
Hit rate of the full screen: of about 370,000 compounds, about 1,100 (0.3%) were called active. The inconclusive results got no clear call from the source; some entries with a clear call stand among them for comparison. The call rests on the fitted dose curve; in most records, active means well fitted activation curve with a large enough effect; inconclusive means small, poorly fitted or top-dose-only effect; inactive means flat fitted curve, though single readings scatter. Potencies beside an inconclusive call are fits to weak or partial responses and may not hold up.

What follows are compounds tested against Relaxin receptor 1 (Homo sapiens) (UniProt Q9HBX9) (assay: qHTS Assay for Agonists of the Relaxin Receptor RXFP1). Settings: HEK293T-RXFP1 cAMP TR-FRET, 30 min; series mostly up to 57.5 µM.
Sequence of UniProt Q9HBX9 (Q9HBX9 whole entry, looked up): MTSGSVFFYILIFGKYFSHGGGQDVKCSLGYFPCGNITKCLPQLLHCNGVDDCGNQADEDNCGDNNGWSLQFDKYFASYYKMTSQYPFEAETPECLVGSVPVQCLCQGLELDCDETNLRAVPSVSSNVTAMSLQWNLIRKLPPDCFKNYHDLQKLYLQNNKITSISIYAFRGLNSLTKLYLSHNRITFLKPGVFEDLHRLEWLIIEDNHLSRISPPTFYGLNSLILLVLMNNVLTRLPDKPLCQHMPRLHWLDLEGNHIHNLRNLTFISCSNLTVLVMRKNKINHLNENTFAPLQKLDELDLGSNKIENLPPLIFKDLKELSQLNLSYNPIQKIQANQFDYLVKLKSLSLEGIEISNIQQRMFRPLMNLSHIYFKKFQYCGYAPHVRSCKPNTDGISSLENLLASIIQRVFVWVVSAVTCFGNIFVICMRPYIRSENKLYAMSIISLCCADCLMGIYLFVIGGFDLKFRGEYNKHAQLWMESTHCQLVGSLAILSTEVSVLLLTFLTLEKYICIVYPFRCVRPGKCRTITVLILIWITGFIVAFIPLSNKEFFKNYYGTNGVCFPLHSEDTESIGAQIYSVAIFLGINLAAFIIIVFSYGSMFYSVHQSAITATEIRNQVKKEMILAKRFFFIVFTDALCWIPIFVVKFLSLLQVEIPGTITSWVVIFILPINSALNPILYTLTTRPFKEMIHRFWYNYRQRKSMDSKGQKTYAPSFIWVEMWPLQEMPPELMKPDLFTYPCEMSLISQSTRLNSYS
How it was run: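 HEK293 cells stably expressing RXFP1, treated 30 min at 37C with compounds plus PDE4 inhibitor Ro 20174; cAMP measured by HTRF TR-FRET. Normalized to buffer and 29 nM porcine relaxin; EC50 by Hill fit.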
Further: nearly all actives have a fitted effect of over 60% in size.
Potency means the concentration at half of the fitted maximal effect; tags describe the fitted curve by direction and shape.

**Q.** With `CCN(CC)C(=O)CSc1nnc2c3ccccc3n(C)c2n1` as the compound, how does the Potency read?
**A.** Its Potency is inconclusive: 20 µM [activator, partial curve].

**Q.** How did the Potency turn out when `CC1=C(C(=O)N2CCOCC2)C(c2ccccc2F)C2=C(CCCC2=O)N1` (stereo unspecified) was run?
**A.** Its Potency is “inactive”.

**Q.** Which Potency does the source give for `c1cncc(-c2noc(-c3cccc4ccccc34)n2)c1` here?
**A.** The Potency was “inactive”.

**Q.** How did the Potency turn out when `Cc1cccc(C)c1NC(=O)Cn1c(=O)n(CCC(=O)NCc2ccccc2Cl)c(=O)c2sccc21` was run?
**A.** The Potency was inconclusive: 35.5 µM [activator, single point].

**Q.** For `CCn1c(SCC(=O)Nc2nc3ccccc3s2)nnc1-c1ccc(Br)cc1`, which Potency is on record?
**A.** The Potency was inconclusive: 28.2 µM [activator, partial curve].

**Q.** Which Potency does the source give for `Cc1ccc(N(Cc2cccs2)C(=O)COc2cccc(C)c2)cc1` here?
**A.** Its Potency is “inactive”.

**Q.** Which Potency does the source give for `COc1ccc(CC(=O)N2CCN(C(=O)Cc3ccc(OC)cc3)CC2)cc1` here?
**A.** The Potency was “inactive”.

**Q.** Which Potency does the source give for `Cc1ccc(NC(=O)c2sc3ncnc(N(C)C4CCCCC4)c3c2C)cc1` here?
**A.** The Potency was inconclusive: 28.2 µM [activator, partial curve].

**Q.** For `COc1ccc(CCC(=O)NCCc2csc(-c3cccc(C)c3)n2)cc1`, which Potency is on record?
**A.** Its Potency is “inactive”.

**Q.** With `Cc1nc(SCc2cccc(F)c2)c2oc3ccccc3c2n1` as the compound, how does the Potency read?
**A.** Its Potency is inconclusive: 39.8 µM [activator, single point].

**Q.** Which Potency does the source give for `C=Cc1ccc(Cn2ccn(-c3ccc(F)c(F)c3)c(=O)c2=O)cc1` here?
**A.** Its Potency is “inactive”.

**Q.** With `CCOC(=O)c1ccc(Nc2nnc(C)c3ccccc23)cc1` as the compound, how does the Potency read?
**A.** The Potency was inconclusive: 20 µM [activator, partial curve].

**Q.** Which Potency does the source give for `COc1ccc2c(c1)c1nc3n(c(=O)c1n2CC(=O)Nc1ccccc1)CCS3` here?
**A.** The Potency was inconclusive: 25.1 µM [activator, partial curve].

**Q.** For `CC(=O)Nc1ccc(NC(=O)C2CCN(c3cnccn3)CC2)cc1`, which Potency is on record?
**A.** Its Potency is inconclusive: 20 µM [activator, partial curve].

**Q.** Which Potency does the source give for `CSc1nsc(/C=C/Nc2cccc(Cl)c2)c1C#N` here?
**A.** Its Potency is inconclusive: 35.5 µM [activator, single point].

**Q.** `COc1ccc(-n2nc3c(N4CCC(C(=O)NCCc5ccccc5)CC4)nnc(C)c3c2C)cc1` was tested. Which Potency did it give?
**A.** The Potency was inconclusive: 31.6 µM [activator, single point].

**Q.** How did the Potency turn out when `CN(CC(=O)Nc1ccccc1Cl)C(=O)COC(=O)Cc1c(F)cccc1Cl` was run?
**A.** Its Potency is active: 12.6 µM.

**Q.** For `COc1ccc(NC(=O)c2sc3nc(N4CCOCC4)c4c(c3c2N)CC(C)(C)OC4)cc1`, which Potency is on record?
**A.** The Potency was inconclusive: 20 µM [activator, partial curve].

**Q.** With `O=S(=O)(c1ccc(Br)cc1)c1nnn2c1nc(N1CCOCC1)c1sccc12` as the compound, how does the Potency read?
**A.** Its Potency is inconclusive: 15.8 µM [activator, partial curve].

**Q.** `COCCCNC(=O)/C(C#N)=C/c1c(N2CCN(c3ccccc3)CC2)nc2ccccn2c1=O` was tested. Which Potency did it give?
**A.** Its Potency is inconclusive: 28.2 µM [activator, partial curve].

**Q.** Which Potency does the source give for `COc1ccc(-n2nc(C(=O)NCC(=O)NCCCN3CCOCC3)c3ccccc3c2=O)cc1Cl` here?
**A.** The Potency was inconclusive: 25.1 µM [activator, partial curve].

**Q.** `CCOC(=O)COc1ccc([N+](=O)[O-])cc1-c1ccnc2cc(-c3ccc(Cl)cc3)nn12` was tested. Which Potency did it give?
**A.** The Potency was inconclusive: 39.8 µM [activator, single point].

**Q.** Which Potency does the source give for `COc1ccc(OC)c(-c2csc(N(C)C(=O)c3ccco3)n2)c1` here?
**A.** The Potency was inconclusive: 35.5 µM [activator, single point].

**Q.** With `COc1ccc2nc(SCC(=O)NC3CCCC3)c(C)cc2c1` as the compound, how does the Potency read?
**A.** The Potency was inconclusive: 35.5 µM [activator, single point].

**Q.** For `Cc1ccccc1OCC(=O)Nc1ccc(-c2nc3ccccc3o2)cc1`, which Potency is on record?
**A.** The Potency was inconclusive: 35.5 µM [activator, single point].

**Q.** `COc1ccc(/C(O)=C2/C(=O)C(=O)N(c3ncccn3)C2c2ccc(F)cc2)cc1` (stereo unspecified) was tested. Which Potency did it give?
**A.** The Potency was inconclusive: 25.1 µM [activator, partial curve].

**Q.** Which Potency does the source give for `CCOc1ccc(/C=N/Nc2ccccn2)cc1` here?
**A.** The Potency was “inactive”.

**Q.** For `CC(C)(C)C1CCc2c(sc(NC(=O)c3cc4ccccc4c(=O)o3)c2C(N)=O)C1` (stereo unspecified), which Potency is on record?
**A.** The Potency was “inactive”.

**Q.** With `CCOc1ccc(C(=O)N2CCN(c3cnn(-c4ccccc4)c(=O)c3Cl)CC2)cc1` as the compound, how does the Potency read?
**A.** The Potency was inconclusive: 39.8 µM [activator, single point].

**Q.** `O=C(CSc1ccc2nnc(-c3cccnc3)n2n1)Nc1ccc(F)cc1` was tested. Which Potency did it give?
**A.** Its Potency is inconclusive: 31.6 µM [activator, single point].

**Q.** Which Potency does the source give for `COc1ccc(-n2nc(C(=O)NCC(=O)NCc3ccc(F)cc3)c3ccccc3c2=O)cc1OC` here?
**A.** Its Potency is inconclusive: 39.8 µM [activator, single point].

**Q.** How did the Potency turn out when `CSc1sc(-c2nnc(SCC(=O)Nc3ccc(Cl)cc3)n2C)c2c1C=CCC2` was run?
**A.** Its Potency is inconclusive: 35.5 µM [activator, single point].

**Q.** For `N=C1C(c2nc3ccccc3s2)=C(O)CN1C1CCCCC1`, which Potency is on record?
**A.** The Potency was inconclusive: 39.8 µM [activator, single point].

**Q.** Which Potency does the source give for `CSc1nc2sc3c(c2c(=S)[nH]1)CC(C)(C)OC3` here?
**A.** The Potency was inconclusive: 25.1 µM [activator, partial curve].

**Q.** With `Cn1c(=O)n(C)c2cc(/C=N/NC(=O)c3ccc(Cl)cc3)ccc21` as the compound, how does the Potency read?
**A.** The Potency was inconclusive: 35.5 µM [activator, single point].

**Q.** Which Potency does the source give for `Cc1cccc(OCC(=O)Nc2ccccc2C(=O)OCc2cc(=O)n3ccsc3n2)c1` here?
**A.** The Potency was inconclusive: 35.5 µM [activator, single point].

**Q.** How did the Potency turn out when `COc1ccc(C2C(C(C)=O)=C(O)C(=O)N2c2ccc(F)cc2)cc1` (stereo unspecified) was run?
**A.** The Potency was inconclusive: 28.2 µM [activator, partial curve].

**Q.** Which Potency does the source give for `Oc1ccc(Cl)cc1C1=Nc2ccccc2N=C(c2ccccc2)C1` here?
**A.** Its Potency is inconclusive: 22.4 µM [activator, partial curve].

**Q.** `N#Cc1c(N2CCCC2)nsc1-c1ccccc1` was tested. Which Potency did it give?
**A.** Its Potency is inconclusive: 20 µM [activator, partial curve].

**Q.** Which Potency does the source give for `O=[N+]([O-])C(/C=C(\Cl)[N+](=O)[O-])=C1N(Cc2ccc(Cl)nc2)CCN1Cc1ccc(Cl)nc1` here?
**A.** The Potency was inconclusive: 39.8 µM [activator, single point].

**Q.** `CCc1cc2c(=O)nc3n(c2s1)Cc1ccccc1/C3=C(/O)c1cccc([N+](=O)[O-])c1` was tested. Which Potency did it give?
**A.** Its Potency is inconclusive: 10 µM [activator, partial curve].

**Q.** Which Potency does the source give for `CCCc1nc(SCC(=O)N2c3ccccc3CC2C)c2c(C)c(C)sc2n1` (stereo unspecified) here?
**A.** Its Potency is inconclusive: 31.6 µM [activator, single point].

**Q.** Which Potency does the source give for `Cc1ccc(C2(c3noc(CN4CCC(C(=O)N5CCOCC5)CC4)n3)CCCC2)cc1` here?
**A.** The Potency was “inactive”.

**Q.** Which Potency does the source give for `COc1ccc(CNC(=O)c2ccc(Cn3c(=O)c4cccn4c4cccnc43)cc2)c(OC)c1` here?
**A.** Its Potency is inconclusive: 39.8 µM [activator, single point].

**Q.** Which Potency does the source give for `Cn1c(=O)c2c(nc(CN3CCN(C(=O)c4ccco4)CC3)n2CCCO)n(C)c1=O` here?
**A.** Its Potency is inconclusive: 25.1 µM [activator, partial curve].

**Q.** `CCOc1ccc(NS(=O)(=O)c2ccc3c(c2)CCN3C(=O)C2CCC2)cc1` was tested. Which Potency did it give?
**A.** The Potency was “inactive”.

**Q.** For `Cc1cc(C)n2nc(CNC(=O)c3ccc(Cl)cc3)nc2n1`, which Potency is on record?
**A.** Its Potency is inconclusive: 25.1 µM [activator, partial curve].

**Q.** With `O=C(Nc1ccc(F)cc1)c1cc2cc(Cl)ccc2[nH]1` as the compound, how does the Potency read?
**A.** Its Potency is inconclusive: 31.6 µM [activator, single point].

**Q.** Which Potency does the source give for `Cc1c(CCC(=O)N2CCC(C(=O)O)(c3ccccc3)CC2)c(=O)oc2cc3oc4c(c3cc12)CCCC4` here?
**A.** The Potency was inconclusive: 39.8 µM [activator, single point].

**Q.** How did the Potency turn out when `COc1ccc(C(=O)c2cn(CC(=O)Nc3cc(C)ccc3C)c3nc(C)ccc3c2=O)cc1` was run?
**A.** The Potency was inconclusive: 35.5 µM [activator, single point].

**Q.** For `CCOCCCN(Cc1ccco1)C(=O)c1cc2c(s1)-c1c(C)cccc1OC2`, which Potency is on record?
**A.** Its Potency is “inactive”.

**Q.** For `Cc1nnc(NC(=O)CSc2ccc(-c3cccnc3)nn2)s1`, which Potency is on record?
**A.** Its Potency is “inactive”.

**Q.** With `O=S(=O)([N-]c1nc2ccccc2nc1-n1cc[n+](Cc2ccccc2)c1)c1ccc(Cl)cc1` as the compound, how does the Potency read?
**A.** Its Potency is inconclusive: 39.8 µM [activator, single point].

**Q.** `CCCCSc1nnc2c(n1)OC(c1ccc(Br)s1)Nc1ccccc1-2` (stereo unspecified) was tested. Which Potency did it give?
**A.** The Potency was “inactive”.

**Q.** For `CC(=O)C1=C(O)C(=O)N(c2cccc(Br)c2)C1c1ccc(Br)cc1` (stereo unspecified), which Potency is on record?
**A.** Its Potency is inconclusive: 25.1 µM [activator, partial curve].

**Q.** Which Potency does the source give for `Cc1nc2ccn(Cc3ccco3)c(=O)c2cc1C(=O)NCc1ccc(Cl)cc1` here?
**A.** The Potency was “inactive”.

**Q.** With `O=C(CNC(=O)c1ccc(F)cc1)OCc1cc(=O)n2ccsc2n1` as the compound, how does the Potency read?
**A.** The Potency was inconclusive: 22.4 µM [activator, partial curve].

**Q.** `CCN1CCc2c(sc(NC(=O)c3ccc(S(=O)(=O)N4CCCC(C)C4)cc3)c2C(=O)OC)C1` (stereo unspecified) was tested. Which Potency did it give?
**A.** The Potency was “inactive”.

**Q.** Which Potency does the source give for `CCCc1nc2ccccc2c(=O)n1CC(=O)c1ccc(OC)cc1` here?
**A.** The Potency was inconclusive: 39.8 µM [activator, single point].

**Q.** `N#Cc1ccc(-c2nc3cc(C#N)c(C#N)cc3nc2-c2ccccc2)cc1C#N` was tested. Which Potency did it give?
**A.** The Potency was inconclusive: 35.5 µM [activator, single point].

**Q.** How did the Potency turn out when `Cc1nc(NC(=O)c2ccccc2O)sc1C` was run?
**A.** The Potency was inconclusive: 35.5 µM [activator, single point].

**Q.** With `COc1cccc(C(=O)OCCCN(C)C)c1` as the compound, how does the Potency read?
**A.** Its Potency is “inactive”.

**Q.** For `COC(=O)c1c(NC(NC(=O)C(C)(C)C)C(Cl)(Cl)Cl)sc2c1CCC2` (stereo unspecified), which Potency is on record?
**A.** Its Potency is “inactive”.

**Q.** For `O=C(CCc1ccccc1)NC(=S)Nc1ccc2c(c1)C(=O)OC2`, which Potency is on record?
**A.** Its Potency is inconclusive: 35.5 µM [activator, single point].

**Q.** Which Potency does the source give for `O=C(CSc1nc2ccccc2nc1Cc1ccccc1)Nc1ccccc1C(F)(F)F` here?
**A.** Its Potency is inconclusive: 28.2 µM [activator, single point].

**Q.** `S=c1[nH]nc(-c2ccccc2)o1` was tested. Which Potency did it give?
**A.** Its Potency is inconclusive: 25.1 µM [activator, partial curve].
